# In paper PMC4336329 (PLoS ONE, 2015):
# The campaign covered roughly 310,000 compounds. About 2,200 (0.71%) showed an effect of 50% or more. The effect is printed as a negative number. Some of the results follow.
# Molecular target: human ether-à-go-go-related gene (hERG) potassium channel (human, UniProt Q12809)
# Test: primary screen, population patch clamp on CHO cells stably expressing hERG
# Chain of human ether-à-go-go-related gene (hERG) potassium channel (Q12809 whole entry, looked up): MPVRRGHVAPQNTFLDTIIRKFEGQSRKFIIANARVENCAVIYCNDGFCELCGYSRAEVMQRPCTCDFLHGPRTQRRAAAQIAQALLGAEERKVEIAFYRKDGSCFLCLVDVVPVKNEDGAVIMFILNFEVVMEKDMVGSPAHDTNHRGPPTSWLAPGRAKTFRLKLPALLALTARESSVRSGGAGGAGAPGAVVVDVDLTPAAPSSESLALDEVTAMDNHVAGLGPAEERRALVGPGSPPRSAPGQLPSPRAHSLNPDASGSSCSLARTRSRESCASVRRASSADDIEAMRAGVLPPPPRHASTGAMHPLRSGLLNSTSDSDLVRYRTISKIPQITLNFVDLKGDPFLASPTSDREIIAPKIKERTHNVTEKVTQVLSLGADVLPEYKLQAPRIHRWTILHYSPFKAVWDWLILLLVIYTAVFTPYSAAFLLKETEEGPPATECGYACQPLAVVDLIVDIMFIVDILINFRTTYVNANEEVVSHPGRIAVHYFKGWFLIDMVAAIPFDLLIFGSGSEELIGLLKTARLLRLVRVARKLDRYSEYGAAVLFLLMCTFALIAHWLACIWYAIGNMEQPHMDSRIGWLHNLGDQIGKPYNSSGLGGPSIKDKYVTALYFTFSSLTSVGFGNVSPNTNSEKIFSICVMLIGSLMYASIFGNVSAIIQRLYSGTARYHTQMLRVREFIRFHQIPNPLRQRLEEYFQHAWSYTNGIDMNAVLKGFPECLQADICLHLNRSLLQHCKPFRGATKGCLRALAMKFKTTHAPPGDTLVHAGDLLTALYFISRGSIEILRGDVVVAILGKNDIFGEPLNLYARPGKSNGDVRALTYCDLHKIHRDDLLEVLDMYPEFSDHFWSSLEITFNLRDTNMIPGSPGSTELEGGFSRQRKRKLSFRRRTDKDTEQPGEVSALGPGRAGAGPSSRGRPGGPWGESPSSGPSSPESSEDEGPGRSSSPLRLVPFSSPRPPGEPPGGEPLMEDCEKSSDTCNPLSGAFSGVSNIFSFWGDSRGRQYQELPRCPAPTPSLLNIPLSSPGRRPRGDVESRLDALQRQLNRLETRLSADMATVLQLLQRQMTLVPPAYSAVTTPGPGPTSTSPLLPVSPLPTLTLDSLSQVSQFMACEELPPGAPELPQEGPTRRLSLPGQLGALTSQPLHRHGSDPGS
row,Structure (SMILES),"hERG current change (%, negative = inhibition) at 1uM [%]"
1,COC(=O)c1nnn(CC(=O)Nc2cccc(OC)c2)c1C(=O)OC,18
2,Cc1ccc(Cn2c(=N)c(C#N)cc3c(=O)n4cccc(C)c4nc32)cc1,-2.14
3,COc1cc(/C=C/c2noc(-c3ccccc3O)n2)ccc1OC(C)=O,7.33
4,CCOC(=O)c1ccc(NCCOC)c([N+](=O)[O-])c1,4.73
5,COc1ccc(OC)c(NC(=O)Cc2c(C(=O)O)n(C)c3ccccc23)c1,-0.65
6,COCCNC(=O)c1c[nH]c2ccc(S(=O)(=O)N3CCc4ccccc43)cc2c1=O,5.88
7,CCOC(=O)N1CCN(C(=O)c2ccc3c(=O)n(Cc4ccc(Cl)cc4)c(=S)[nH]c3c2)CC1,11.6
8,Cc1ccc(/C=N/NC(=O)c2ccc(NC(=O)c3ccc(Cl)cc3)cc2)o1,15.5
9,Cc1cc(C)c(C)c(S(=O)(=O)N2CCN(c3ccc(O)cc3)CC2)c1C,15.6
10,O=c1[nH]c2ccccc2c(O)c1O,10.9
11,CSc1ccc(CNc2ccc(C)c(C)c2)cc1,12.2
12,COc1ccccc1N(C)S(=O)(=O)c1ccc(C(=O)Nc2ccncc2)cc1,2.5
13,Cc1ccc(C)c(Oc2cc(NN3CCCCC3)c([N+](=O)[O-])cc2[N+](=O)[O-])c1,9.22
14,O=C(O)CCN1Cc2ccccc2C1=O,15.6
15,c1ccc2sc(NCC3CCCO3)nc2c1 (stereo not shown),22.2
16,COc1cc(OC)cc(C(=O)NCC(=O)OCC(=O)Nc2ccc3c(c2)OCO3)c1,3.94
17,Cc1c(C(=O)O)oc2c1/C(=N\O)CC(C)(C)C2,2.91
18,COc1ccc(S(=O)(=O)N2c3ccccc3OCC2C(C)(C)C)cc1 (stereo not shown),15.8
19,O=C(C1CC1)N1N=C(C2CCCCC2)CC1(O)C(F)(F)F (stereo not shown),1.15
20,CCn1c(SCC(=O)Nc2ccccc2)nc2c1c(=O)n(C)c(=O)n2C,12.2
21,C/C(=N\NC(=O)NC1CCCCC1)c1ccc(OC(F)F)cc1OC(F)F,1.93
22,CCN1CCN(C(=O)c2sc3nc(C)nc(N4CCC(C)CC4)c3c2C)CC1,2.48

row,Structure (SMILES),"hERG current change (%, negative = inhibition) at 1uM [%]"
1,COc1ccccc1NC(=O)Cc1csc(NC(=S)Nc2ccc(C)cc2)n1,5.08
2,COC(=O)C(=Nc1ccccc1)/C(C(=O)C(=O)N(C)c1ccccc1)=C(\O)c1ccc(Cl)cc1,8.72
3,COc1ccc(C(C)(C)C)cc1NC(=O)CCCn1c(=O)oc2ccccc21,5.41
4,CCc1nn2cc(C(=O)c3cc(Cl)ccc3O)cnc2c1-c1ccc(F)cc1,9.88
5,COc1ccc2nc(C)cc(SCC(=O)NNC(=O)COc3cccc4ccccc34)c2c1,13
6,O=c1nc(N/N=C/C=C/c2ccccc2)cn[nH]1,9.87
7,COc1ccc(/C=C2\SC(=O)N=C2N)cc1,11.7
8,CCc1cccc(C)c1NC(=O)C1CCN(C(=O)c2ccc([N+](=O)[O-])cc2)CC1,-8.45
9,Cc1ccc[n+](CC(=O)N2CCCCC2)c1C.[Br-],11.1
10,O=C(c1c(Cl)cccc1Cl)N1CCN(c2cccc3[nH]ccc23)CC1,11.2
11,COc1ccc(CNS(=O)(=O)c2ccc(NC(=O)N3CCCCC3)cc2)cc1,3.41
12,O=C(NCC(c1ccco1)N1CCN(c2ccccc2F)CC1)C1CCCCC1 (stereo not shown),16.1
13,Cc1sc2ncnc(SCC(=O)N3CCN(C(=O)c4ccco4)CC3)c2c1C,-67.3
14,Cc1nc(-c2ccncc2)nc(NCCNc2ccc(C(F)(F)F)cn2)c1Cl,5.61
15,COc1cccc(CNC(=O)Cn2cc3c(n2)CCCC3)c1,8.27
16,O/N=C/c1ccc(OCc2ccccc2F)c(Cl)c1,1.1
17,O=C(c1cccc(N2C(=O)C3C4C=CC(C4)C3C2=O)c1)N1CCN(c2ccccc2F)CC1 (stereo not shown),11.7
18,Cc1ccc(OCC(=O)OCC(=O)Nc2sccc2C(N)=O)cc1C,16.3
19,O=C(COC(=O)Cc1ccccc1[N+](=O)[O-])NCC1CCCCC1,3.86
20,COP(=O)(CC(=O)c1ccccc1)CC(=O)c1ccccc1,8.51
21,CCN(CC)C(=O)C1CCCN(Cc2nc(-c3cnccn3)no2)C1 (stereo not shown),-1.4
22,Cc1ccc(OCC(=O)Nc2ccc(F)cc2)cc1,16.9

row,Structure (SMILES),"hERG current change (%, negative = inhibition) at 1uM [%]"
1,CCn1cc(S(=O)(=O)CC(=O)Nc2cccc(C)c2)c2ccccc21,13
2,COc1cccc(C(=O)Nc2ccc(S(=O)(=O)Nc3nccc(C)n3)cc2)c1,17.4
3,COc1cccc(/C=N\NC(=O)c2ccc(C)nc2)c1,13.3
4,C/C(=N\NS(C)(=O)=O)c1ccccc1,11.3
5,COc1cc(C(=O)N2CCC(O)(c3ccccc3)CC2)cc(OC)c1OC,9.08
6,COC(=O)C(NS(=O)(=O)c1ccc(NC(C)=O)cc1)C(C)C (stereo not shown),3.26
7,COCCNC(=O)CNC(=S)N(CCCN1CCOCC1)Cc1cccs1,6.05
8,CCOC(=O)c1c2ccc(OCC(=O)NN)cc2n2ccccc12,13.3
9,O=C(COC(=O)CCCN1C(=O)c2ccccc2C1=O)Nc1ncc(Cl)cc1Cl,6.88
10,O=S(=O)(Nc1ccc(-c2nc3cccnc3s2)cc1)c1ccccc1F,12.3
11,CCn1c(=O)cc(O)c2ccccc21,5.93
12,Cc1ccc(NC(=O)CSc2nnc(CCC(=O)O)c(=O)[nH]2)cc1,12.6
13,CCc1ccc(Nc2nnc(SCn3nnc4ccccc4c3=O)s2)cc1,-9.72
14,COC(=O)c1ccc(CNC(=O)Cn2cnnn2)cc1,9.54
15,CCCOc1cccc(C2C(C(=O)c3cccs3)=C(O)C(=O)N2CCN2CCOCC2)c1 (stereo not shown),15
16,Cc1cc(/C=C2\SC(=S)NC2=O)cc(C)c1O,14.7
17,CC(C)C[C@H]1CN=C(N(C)C)N1CC1CCCCCC1,3.22
18,O=C(CCCl)N(Cc1nc2ccccc2c(=O)[nH]1)Cc1cccs1,7.98
19,CC(C)NC(=O)c1ccc(NC(=O)CC2SC(N3CCCCC3)=NC2=O)cc1 (stereo not shown),5.6
20,CCOc1ccccc1NC(=O)CSc1nc2ccccc2nc1N1CCCC1,11.8
21,O=C(Cc1ccccc1)Nc1ccccc1Oc1ccccc1,8.82
22,CCOc1ccc2nc(NCCNC(=O)Nc3cccc(C)c3)c(C#N)cc2c1,-0.464

row,Structure (SMILES),"hERG current change (%, negative = inhibition) at 1uM [%]"
1,O=C(O)c1cc(NC(=S)NC(=O)C(c2ccccc2)c2ccccc2)ccc1Cl,12.5
2,CCOC(=O)C1[C@H]2C(=O)N(C(C)c3ccc(OC)cc3)C[C@]23C=C[C@H]1O3 (stereo partly shown),1.08
3,N#Cc1c(-c2cccnc2)cc(-c2ccccc2)nc1N,10.1
4,O=C(COC(=O)c1ccncc1)Nc1cc(S(=O)(=O)N2CCOCC2)ccc1Cl,7.02
5,COc1ccc(N(C(=O)c2ccncc2)S(=O)(=O)c2ccc(Cl)cc2)cc1,-3.03
6,CNC(=S)NNC(=O)c1cn(C)nc1C,14.6
7,COc1ccc(N(CCCN2C(=O)c3cccc4cccc(c34)C2=O)C(=O)c2cccc(OC)c2)cc1,17.8
8,Cc1cc2cc(C(c3nnnn3Cc3ccccc3)N3CCc4ccccc43)c(=O)[nH]c2cc1C (stereo not shown),1.41
9,CS/C(N)=N/N=C/c1c(O)ccc2ccccc12,0.189
10,CC1(C)CC(CC(=O)Nc2nccs2)(c2ccccc2)CCO1 (stereo not shown),3.87
11,CC(Sc1n[nH]c(N)n1)c1nc2scc(-c3cccs3)c2c(=O)[nH]1 (stereo not shown),9.29
12,Cc1ccccc1S(=O)(=O)Cc1ccc(C(=O)NCc2ccc(F)cc2)o1,-5.68
13,C=CCn1c(=O)c2ccc(C(=O)NCc3ccccc3)cc2n(Cc2ccc(C)cc2)c1=O,21.2
14,CCCCOC(=O)c1ccc(NC(=S)N2CCN(c3ncc4c(=O)c(C(=O)O)cn(CC)c4n3)CC2)cc1,10.8
15,O=C(NNC(=S)NCc1ccco1)c1cccs1,2.04
16,Cc1ccnc2nc(C(=O)Nc3nnc(-c4ccc(Cl)cc4)o3)nn12,8.17
17,CCCN(CC(=O)Nc1cc(Cl)cc(Cl)c1)CC(=O)Nc1ccc(F)c(F)c1F,9.77
18,COc1ccc(N2CCN(C(=O)c3cn(Cc4ccccc4)nc3-c3cccnc3)CC2)cc1,0.0813
19,CCc1ccc(NC(=S)Nc2cc(OC)c(NC(=O)C(C)C)cc2OC)cc1,14.2
20,CC(=O)N1N=C(c2ccc(Cl)cc2)OC1c1ccc(C(C)C)cc1 (stereo not shown),9.42
21,CCOC(=O)c1ccc(NC(=S)N(CCCN2CCCC(C)C2)Cc2ccco2)cc1 (stereo not shown),-42.8
22,CCOC(=O)c1c(N)sc(C(N)=O)c1C,15.5
